# “And” between values parts separate entries of the source, which are not always exact repeats. Identical values can stand only once. Out of some 420,000 compounds screened, about 64,000 (15%) were called active. The shares of active, inactive and inconclusive entries below differ from those in the screen. Calls come from the whole dose curve; as a rule, active = well fitted inhibition curve with a large enough effect; inconclusive = small, poorly fitted or top-dose-only effect; inactive = flat fitted curve, though single readings scatter. Potencies of inconclusive entries are doubtful fits and often do not repeat.
# Test: qHTS for Inhibitors of human tyrosyl-DNA phosphodiesterase 1 (TDP1): qHTS in cells in absence of CPT; note: nearly all actives have a fitted effect of over 55% in size
# Conditions: DT40 Tdp1-/- hTDP1 cells, no CPT, ATP luminescence, 48 h; activity change, negative = growth inhibition: at 46.2 µM (top of the series) unless noted
# How it was run: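 Compound effects on proliferation are scored in DT40 Tdp1-/-;hTDP1 cells in the absence of CPT. ATP levels (CellTiter-Glo luminescence) are recorded after a ≥48 hr, 37 °C incubation.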
# % is set by controls: 0 for no effect and ±100 for the full control effect; potency is the fitted concentration of half-maximal effect; tags give direction and shape of the fitted curve.
SMILES,Potency,"activity change, negative = growth inhibition"
Cc1ccc(Nc2nc(Nc3ccc(Cl)cc3)nc(N3CCOCC3)n2)cc1,active: 17.8 µM,
CCc1ccc(CN2CCC(n3nccc3NC(=O)Cc3ccccc3)CC2)o1,"inconclusive: 14.6 µM [inhibitor, single point]",
Cc1nccn1CCCNC(=O)CC1C(=O)NCCN1Cc1ccc(Cl)c(F)c1 (stereo unspecified),inactive,
Cc1ccc(C)c(CC(=O)N2CCCC(c3cc(C(=O)NCc4ccccc4)no3)C2)c1 (stereo unspecified),"inconclusive: 20.6 µM [inhibitor, single point]",
Cc1ccc(S(=O)(=O)Nc2ccc3nc(-c4cccn4C)[nH]c3c2)cc1,"inconclusive: 20.6 µM [inhibitor, single point]",
CC(C)CCn1nnnc1CN1CCN(c2ccc(F)cc2)CC1,"inconclusive: 29.1 µM [inhibitor, single point]",
Cc1ccc(C(=O)NCC(=O)OCc2cc(=O)n3nc(C4CC4)sc3n2)cc1,inactive,
COc1ccccc1C(=O)NCCC(=O)Nc1ccncc1,inactive,
Cc1ccc(NC(=O)CSCC(=O)OC(C)C(=O)Nc2ccc(S(N)(=O)=O)cc2)c(C)c1 (stereo unspecified),inactive,
CN1C2C=C3C(C#N)=C(N)C(C#N)(C#N)[C@@H](c4cccc(F)c4)[C@@H]3C1CC2 (stereo partly specified),"inconclusive: 18.4 µM [inhibitor, single point]",
CCOc1ccc(NC(=O)CN2CCN(c3ccc(F)cc3)CC2)cc1,inactive,
CC(C)CCN1C(=O)CSCC1(C)C(=O)NCc1ccccc1 (stereo unspecified),"inconclusive: 16.4 µM [inhibitor, single point]",
CCC1Sc2ccc(S(=O)(=O)Nc3cc(OC)cc(OC)c3)cc2NC1=O (stereo unspecified),"inconclusive: 9.2 µM [inhibitor, partial curve, poor fit]",
O=C(Nc1cccc(-n2cnnn2)c1)C1CCCN(C(=O)Cc2cccc(Cl)c2)C1 (stereo unspecified),"inconclusive: 23.1 µM [inhibitor, single point]",
COc1cc(OC)cc(C(=O)NCCN2CCOCC2)c1,inactive,
O=C(Oc1cccc2ccccc12)c1ccccc1,"inconclusive: 16.4 µM [inhibitor, single point]",
O=C(Nc1ccc(O)c(C(=O)O)c1)c1ccc2c(c1)C(=O)N(CC1CCCO1)C2=O (stereo unspecified),inactive,
COc1ccc(S(=O)(=O)Cc2ccc(C(=O)N3CCN(c4cc(C)ccc4C)CC3)o2)cc1,"inconclusive: 29.1 µM [inhibitor, single point] and inconclusive: 20.6 µM [inhibitor, single point]",
Cc1ccc(C)c(CSc2nnc(-c3cccs3)n2Cc2ccco2)c1,"inconclusive: 29.1 µM [inhibitor, single point]",
Cc1cc(C)c2cc(C(=O)N3CCC(Cc4ccccc4)CC3)[nH]c2c1,"inconclusive: 29.1 µM [inhibitor, single point]",
O=C(O)c1cccnc1SCc1cccc(Cl)c1,"inconclusive: 29.1 µM [inhibitor, single point]",
Cc1nn(Cc2ccccc2Cl)c2sc(C(=O)NCc3ccc4c(c3)OCO4)cc12,,inconclusive: -32.6% [inhibitor]
CCOc1ccc(NC(=O)CSc2nncn2C)cc1,inactive,
C=CC[C@H](CC(=O)N[C@H](CO)Cc1ccccc1)C(=O)N[C@@H](COC(=O)[C@H](CC=C)CC(=O)OC(C)(C)C)Cc1c[nH]c2ccccc12,active: 23.1 µM,

SMILES,Potency,"activity change, negative = growth inhibition"
Clc1ccc(-c2nc3ccc(Br)cn3c2Cc2cccc(Cl)c2)cc1,"inconclusive: 23.1 µM [inhibitor, single point]",
O=C(CNC(=O)c1cccc([N+](=O)[O-])c1)NC1CCCc2ccccc21 (stereo unspecified),"inconclusive: 2.91 µM [inhibitor, partial curve, poor fit]",
COc1cc2nc(N(C)C)nc(N)c2cc1OC,active: 25.9 µM,
O=C1NC[C@@H](CCCCN2CCN(CCc3ccccc3)C(=O)C2=O)N(CC2CCCCC2)C1=O,inactive,
O=C(c1cn(-c2ccccc2)nc1-c1cccs1)N(CCO)Cc1ccccc1,active: 18.4 µM,
COC(=O)c1ccc2nc(-c3ccc(F)cc3)c(Cc3ccc(C)cc3)n2c1,inactive,
Cc1ccc2c(c1)-c1c(cnn1CC(=O)N(Cc1ccco1)C1CCCCC1)CO2,"inconclusive: 25.9 µM [inhibitor, single point]",
OC[C@H]1O[C@@](CO)(O[C@H]2O[C@H](CO)[C@@H](O)[C@H](O)[C@H]2O)[C@@H](O[C@H]2O[C@H](CO)[C@@H](O)[C@H](O)[C@H]2O)[C@@H]1O,inactive,
Cc1ccc(S(=O)(=O)N(CC(=O)Nc2cccc([N+](=O)[O-])c2)C(=O)N2CCN(C)CC2)cc1,inactive,
Cc1ccccc1C(=O)N1CCC1(C)C(=O)NC(C)C (stereo unspecified),inactive,
Cc1cc(C)c2c(n1)nn1c(-n3ccnc3)cc(C)nc21,"inconclusive: 11.6 µM [inhibitor, partial curve]",
CC(=O)N1CCN(c2ccc(NC(=O)c3cccc(OCc4ccccc4)c3)cc2)CC1,"inconclusive: 29.1 µM [inhibitor, single point]",
Nc1[nH]c(C(=O)c2ccccc2)c(-c2ccncc2)c1C(=O)NCc1cccc2ccccc12,"inconclusive: 29.1 µM [inhibitor, single point]",
COc1ccc(CNc2cc(-c3ccccc3OC)ncn2)c(OC)c1,,inconclusive: -33.2% [inhibitor]
Cc1ccccc1OCC(=O)Nc1ccc(N2CCN(C(=O)c3ccco3)CC2)cc1,active: 20.6 µM,
COc1ccccc1OCC(=O)Nc1ccc(C(=O)Nc2ccccc2C(=O)O)cc1,"inconclusive: 29.1 µM [inhibitor, single point]",
COc1ccccc1CCc1nnc(CCC(=O)NC(C)Cc2ccsc2)o1 (stereo unspecified),"inconclusive: 29.1 µM [inhibitor, single point]",
Cc1cc2oc3ccc(NCCC4CCCN4C)cc3c(=O)c2cc1C (stereo unspecified),active: 16.4 µM,
CN(C)C(=O)COC(=O)/C=C/c1cn(-c2ccccc2)nc1-c1cccs1,"inconclusive: 13 µM [inhibitor, partial curve]",
CCn1c(Cc2ccc(OC)cc2)nnc1SCC(=O)NC1CC1,inactive,
COc1cc2cc(C(=O)Nc3ccc4c(c3)OCCO4)[nH]c2cc1OC,"inconclusive: 4.11 µM [inhibitor, single point]",
CC1Cc2ccccc2N1CC(=O)NC(=O)NC1CCCC1 (stereo unspecified),"inconclusive: 23.1 µM [inhibitor, single point]",
CS/C(=C/[N+](=O)[O-])Nc1cccc2c1C(C)CC2(C)C (stereo unspecified),inactive,
COc1ccc(C(=O)Nc2cc(Cl)cc(Cl)c2)c(OC)n1,"inconclusive: 29.1 µM [inhibitor, single point]",

SMILES,Potency,"activity change, negative = growth inhibition"
Brc1ccc2nc3c(n2c1)CCCC3,"inconclusive: 29.1 µM [inhibitor, single point]",
CC(C(=O)NCc1cccc(Br)c1)n1ncn2cccc2c1=O (stereo unspecified),inactive,
COc1cccc(C2CC(c3cccc(Br)c3)n3nc(N)nc3N2)c1 (stereo unspecified),"inconclusive: 16.4 µM [inhibitor, single point]",
Clc1ccc(CNC2CCN(Cc3ccccc3)CC2)cc1,"inconclusive: 20.6 µM [inhibitor, single point]",
Nc1nn(-c2ccccc2)nc1C(=O)OCc1ccccc1Br,"inconclusive: 23.1 µM [inhibitor, partial curve]",
O=C(Cc1ccccc1)NCC1COc2ccccc2O1 (stereo unspecified),inactive,
Cc1ccc2nc(SCC(=O)N3c4ccccc4CC3C)c(C)cc2c1 (stereo unspecified),active: 14.6 µM,
Cc1ccccc1S(=O)(=O)Cc1ccc(C(=O)NCc2ccccc2Cl)o1,"inconclusive: 29.1 µM [inhibitor, single point]",
CC1(C(=O)NS(=O)(=O)c2ccccc2Cl)CCN1C(=O)c1ccccc1CCc1ccccc1 (stereo unspecified),"inconclusive: 16.4 µM [inhibitor, single point]",
COc1ccc(OC)c(/C(O)=C/C(=O)C(=O)Nc2cc(C)ccc2OC)c1,"inconclusive: 29.1 µM [inhibitor, single point]",
C[C@H](CO)N1C[C@H](C)[C@H](CN(C)S(=O)(=O)c2cccc(F)c2)Oc2ncc(-c3cccc(C(=O)N(C)C)c3)cc2C1=O,inactive,
COc1ccc(C(=O)Oc2ccc(/C=N/NC(=O)c3ccccc3OC)cc2[N+](=O)[O-])cc1,inactive,
CCOCCCNC(=S)N1CCC(NC(=O)C23CC4CC(CC(C4)C2)C3)CC1,inactive,
CSC1=N/C(=C\c2ccccc2Cl)C(=O)N1N(C)C,"inconclusive: 16.4 µM [inhibitor, single point]",
Nc1nc(N)c(-c2cccc(C(F)(F)F)c2)c(Cc2cccc(C(F)(F)F)c2)n1,active: 1.3 µM,
Cn1cc(-c2cc3n(n2)CCC(=O)N3CCCC(=O)Nc2ccccc2Cl)c2ccccc21,active: 18.4 µM,
Cc1csc(C(=O)O)c1-n1cccc1,inactive,
O=C(Cc1c[nH]c2ccccc12)Nc1ccccc1N1CCOCC1,"inconclusive: 29.1 µM [inhibitor, single point]",
CCCCOc1ccc(C(=O)Nc2cccc(-n3cnnn3)c2)cc1OC,inactive,
COc1cc(-c2nc3ccc(Cl)cn3c2Nc2ccc3c(c2)OCO3)ccc1O,active: 13 µM,
Cc1ccc(C(=O)NC(=S)NNC(=O)c2ccccc2)cc1,"inconclusive: 18.4 µM [inhibitor, single point]",
COC(=O)[C@@]12C[C@@H](CC(=O)NCC34CC5CC(CC(C5)C3)C4)C(=O)N(Cc3ccc4c(c3)OCO4)C1=CCC(C)(C)C2,"inconclusive: 29.1 µM [inhibitor, single point]",
S=C(Cc1cccnc1)N1CCOCC1,"inconclusive: 20.6 µM [inhibitor, partial curve]",
